# Assay results: PubChem BioAssay AID445 (National Center for Advancing Translational Sciences (NCATS), 2006)
# Hit rate of the full screen: of about 110,000 compounds, about 40 (0.04%) were called active. This list was built around the results that the source calls inconclusive (neither active nor inactive); the mix of calls is not that of the screen. Calls follow the shape of the dose curve; as a rule, active = well fitted curve in the direction sought with a large enough effect in the signal ratio (not every such curve was filed as active); inconclusive = small, poorly fitted or top-dose-only effect, or a change in a side signal; inactive = flat fitted curve, though single readings scatter; the % refers to the signal ratio.
# Experiment: IkB Signaling;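 also: 0% = basal untreated cells and 100% = reference inhibitor full response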
# Conditions: ABC-DLBCL IkBa-CBG/CBR dual luciferase ratio (green luciferase fused to IkBa over red control in OCI-Ly3 lymphoma cells), 4 h; IkBa stabilization activation: at 57.1 µM (top of the series), scaled: untreated 0%, proteasome inhibitor 100% unless noted
# Outline: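 Luminescence ratio of IκBα-fused green versus native red beetle luciferase in OCI-Ly3 cells, 4 h post-doxycycline with compound; red signal alone, scaled from basal (0%) to zero light (-100%), flagged nonspecific or cytotoxic effects.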
row,Structure (SMILES),IkBa stabilization activation
1,Cc1cccc(N(CC(=O)NCCSCc2ccc(Cl)cc2)S(C)(=O)=O)c1C,inconclusive: 10.7% [signal inhibitor]
2,O=C(NCCc1ccc2c(c1)OCO2)C1CCN(S(=O)(=O)c2ccc(Cl)cc2)CC1,inactive: 3.88%
3,CC(=O)c1cccc(NC(=O)c2cccn2-c2nnc(N3CCCCC3)s2)c1,inactive: 1.96%
4,CCOc1ccc(NC(=O)c2cc3c(n(-c4ccc(OC)cc4)c2=O)CC(C)(C)CC3=O)cc1,inconclusive: 4.28% [signal inhibitor]
5,Cc1nn(Cc2ccc(C(=O)N3c4ccc(F)cc4CCC3C)o2)c(C)c1Br (stereo not drawn),inconclusive: 9.03% [signal inhibitor]
6,CCOC(=O)Cn1c(=O)oc2cc(S(=O)(=O)N3CCN(c4ccccc4F)CC3)ccc21,inconclusive: 3.89% [signal inhibitor]
7,CCOC(=O)c1ccc2c(c1)N(CC(=O)Nc1ccc(C)cc1C)C(=O)c1ccccc1S2,inconclusive: 3.72% [signal inhibitor]
8,CCN(CC)C(=O)Cn1cc(SCC(=O)Nc2ccccc2F)c2ccccc21,inactive: 8.89%
9,CCn1cc(C(=O)NCCCN(CC(C)C)CC(C)C)c(=O)c2cc(S(=O)(=O)N(C)C3CCCCC3)ccc21,inconclusive: 0.0718% [signal inhibitor]
10,COc1ccc(NC(=O)CCc2nnc3n(C)c(=O)c4sccc4n23)cc1Cl,inconclusive: -0.379% [signal inhibitor]
11,CCOC(=O)CNC(=O)CSc1ncnc2c1cnn2-c1ccccc1,inactive: 3.32%
12,O=S(=O)(c1ccccc1F)N1CCC(Oc2ccc(-n3cnnn3)cc2)CC1,inconclusive: 1.51% [signal inhibitor]
13,O=C1CC(N2CCN(C/C=C/c3ccccc3)CC2)C(=O)N1CCc1ccccc1 (stereo not drawn),inconclusive: 1.65% [signal inhibitor]
14,Cc1ccc(-c2nc(CSCC(=O)NCCN3CCN(Cc4ccccc4)CC3)c(C)o2)cc1,inconclusive: 6.03% [signal inhibitor]
15,CN(CCc1ccc(Cl)c(Cl)c1)C[C@@H](O)COc1ccc(NS(C)(=O)=O)cc1,inconclusive: 1.41% [signal inhibitor]
16,COc1cccc(CNc2nc3c(-c4ccccc4)nnn3c3ccccc23)c1,inconclusive: 10.8% [signal inhibitor]
17,COc1ccc(CCNC(=O)Cn2c(=O)n(-c3cc(OC)c(OC)c(OC)c3)c(=O)c3ccccc32)cc1OC,inconclusive: -0.862% [signal inhibitor]
18,Cc1ccc2oc(=O)c3cnn(CC(=O)N4CCN(c5cc(Cl)ccc5C)CC4)c3c2c1,inconclusive: 7.8% [signal inhibitor]
